The assay concerns NCI-H322M lung. Put plainly: DTP human tumour cell line panel, 48 h.

The structures appear in SMILES notation.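 Test compounds were applied to cells in 96-well plates for 48 hours at 5 doses. GI50 is the concentration that inhibits growth by half. TGI marks complete inhibition of growth.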

On to `COc1ccc(NC(=O)Cn2c(/C=C/c3cccc(Br)c3)nc3ccccc3c2=O)cc1`, for which the GI50 was 13.6 µM and the total growth inhibition concentration (TGI) was > 36 µM.

`COc1cc2oc(-c3cccc(C(=O)Nc4ccc(Cl)cc4)c3)cc(=O)c2c(OCCNC(=O)[C@H](CO)NC(=O)OC(C)(C)C)c1OC`: the GI50 is 22.1 µM and the TGI is > 100 µM.

These data come from PubChem BioAssay (NCI).
